# Hit rate of the full screen: of about 110,000 compounds, about 230 (0.21%) showed an effect of 50% or more. Some of the results follow.
# Target: DPAP1 (Plasmodium falciparum, UniProt Q8IIJ9)
# Assay: primary screen, percent inhibition; read by cleavage of a fluorogenic dipeptide substrate; higher = more effect of the substance
# Set-up: species or system P. falciparum D10 trophozoite lysates; single well
# 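Note: 30 min substrate incubation versus DMSO and 10 µM JCP410 controls.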
# Sequence of DPAP1 (Q8IIJ9 whole entry, looked up): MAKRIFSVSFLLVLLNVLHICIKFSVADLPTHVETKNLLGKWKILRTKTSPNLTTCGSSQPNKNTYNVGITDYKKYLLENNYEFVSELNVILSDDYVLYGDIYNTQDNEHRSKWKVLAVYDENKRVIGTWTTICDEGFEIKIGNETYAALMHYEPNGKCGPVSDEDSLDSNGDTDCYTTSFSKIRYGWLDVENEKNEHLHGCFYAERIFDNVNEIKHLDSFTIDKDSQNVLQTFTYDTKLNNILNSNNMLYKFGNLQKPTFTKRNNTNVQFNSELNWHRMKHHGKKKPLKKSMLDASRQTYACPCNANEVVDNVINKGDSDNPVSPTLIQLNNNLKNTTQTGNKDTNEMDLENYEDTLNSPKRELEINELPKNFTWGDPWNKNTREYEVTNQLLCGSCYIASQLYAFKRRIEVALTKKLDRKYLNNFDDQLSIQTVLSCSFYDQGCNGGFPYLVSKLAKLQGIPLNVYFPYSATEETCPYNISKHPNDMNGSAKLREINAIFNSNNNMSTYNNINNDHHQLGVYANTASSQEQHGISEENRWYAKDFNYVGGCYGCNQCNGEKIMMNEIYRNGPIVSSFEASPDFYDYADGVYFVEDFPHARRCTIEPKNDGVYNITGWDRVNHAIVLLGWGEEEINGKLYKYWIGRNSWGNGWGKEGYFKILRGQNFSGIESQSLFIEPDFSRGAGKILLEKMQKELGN
row,SMILES,% Inhibition @ 10 uM [%]
1,CCc1ccc(CNC(=O)CCn2ccc3cc(S(=O)(=O)N4CCCC4)ccc32)cc1,-3.43
2,COc1cc2ccccc2cc1C(=O)Nc1nc(-c2cc3ccccc3oc2=O)cs1,1.39
3,CCCCC12CN3CCN(CC(C3)C1O)C2 (stereo not drawn),-2.22
4,Cc1cc(C)c(C(=O)c2ccc(C(=O)N3CCCCC3)cc2)c(C)c1,-5.94
5,COc1ccc(OC)c(C2=NOC(C(=O)N(C)C3CCCCC3)C2)c1 (stereo not drawn),-0.431
6,COc1ccccc1CNC(=O)CN(c1cccc(F)c1)S(C)(=O)=O,-10.9
7,C#CC1(C)CCC2C(O1)c1ccccc1OC2(C)C (stereo not drawn),-1.77
8,Brc1ccc(CN2CCN(c3ccccn3)CC2)cc1,-5.41
9,CC1(C)CC2=NC3=C(C(=O)c4ccccc43)C(c3cccc(O)c3)C2=C(O)C1 (stereo not drawn),-4.68
10,COc1ccc(CN2CC=C(Cc3ccccc3)CC2)cc1,2.23
11,O=C1c2ccccc2C(=O)c2cc(S(=O)(=O)NC3CCCCC3)ccc21,25.4
12,C=CCN1C(=O)N/C(=C/c2ccc(Sc3ccccc3)cc2)C1=O,-1.6
13,CC(C)Cc1ccc2c(N)c(C(=O)Nc3ccccc3)sc2n1,-1.98
14,Cc1ccc2oc(=O)c3cc(C(=O)NCCC(C)C)sc3c2c1,0.809
15,CCN(Cc1ccccc1)C(=O)C1CCC(CNS(=O)(=O)c2cccc3nsnc23)CC1 (stereo not drawn),2.93
16,CNCC(O)CNC(C)(C)C (stereo not drawn),-5.5
17,CCc1c(C)sc(NC(=O)c2cnccn2)c1C(N)=O,-0.519
18,Cc1ccc(-c2nnc(Cl)c3ccccc23)cc1S(=O)(=O)NC1CC(C)(C)NC(C)(C)C1,5.19
19,CC1CN(C(=O)C(C)NS(=O)(=O)c2cccc(Cl)c2)CC(C)O1 (stereo not drawn),1.92
20,CCOC(=N)c1nc2c(c(=O)n(C)c(=O)n2C)n1Cc1ccccc1Cl,3.42
21,COc1ccccc1-n1cc(-c2ccccc2)nc1S,58.6

row,SMILES,% Inhibition @ 10 uM [%]
1,Cc1ccccc1OCC1=NN2C(=N)/C(=C\c3coc4ccccc4c3=O)C(=O)N=C2S1,-0.495
2,Cc1ccccc1C(=O)Nc1nnc(S(=O)(=O)N(C)Cc2ccco2)s1,-5.99
3,COCc1cc(C)nc(SCC(=O)Nc2cccc(C(F)(F)F)c2)c1C#N,-4.75
4,COc1ccc(NC(=O)c2c(NC(=O)Cc3ccccc3)sc3c2CCC3)cc1,1.83
5,NS(=O)(=O)c1ccc(CCNC(=O)CCCN2C(=O)C(c3ccccc3)Oc3cccnc32)cc1 (stereo not drawn),-5.37
6,Nc1c(C(=O)Nc2ccccc2F)sc2nc3c(cc12)CCCC3,0.235
7,COc1cccc(NC(=O)CN(c2ccccc2OC)S(=O)(=O)c2ccccc2)c1,0.324
8,COC(=O)c1c(C)oc(C)c(C(=O)OC)c1=O,1.91
9,Cc1oc(-c2cccc(Cl)c2)nc1CN1CCCC(C(=O)NC(C)c2ccccc2)C1 (stereo not drawn),-1.05
10,CCCCCCCNc1ccc(NC(=O)c2ccccc2)c2c1C(=O)c1ccccc1C2=O,4.26
11,CCCCc1nc2sc(C(=O)OCC)c(N)c2c2c1COC(C)(C)C2,-3.14
12,CC(=O)Nc1nc(COc2ccc3ccccc3c2)cs1,0.343
13,CCO/C(O)=C1/C(C)=NC2=C(C(=O)CC(C)(C)C2)C1c1ccc(C(=O)OC)cc1 (stereo not drawn),-2.18
14,Cc1ccc(S(=O)(=O)N2CN(Cc3cccnc3)CN=C2N)cc1,3.68
15,Cn1c(=O)c(-c2ccccc2N)nc2ccccc21,8.57
16,O=C(N1CCCC1)N1CCN(S(=O)(=O)c2ccccc2)CC1,-7.32
17,O=C(Nc1ccc(NC(=O)C2CCCC2)cc1)C1CCCC1,-7.09
18,CCc1c(C)sc(NC(=O)c2ccc(Br)o2)c1C(N)=O,2.01
19,O=C(NCc1nc(-c2ccc(Cl)cc2)no1)c1cccs1,2.14
20,CCCCCn1c(=O)c(C(=O)Nc2ccc(Cl)cn2)c(O)c2ccccc21,-2.64
21,Cc1cc(/C=C2\C(=N)N3N=C(S(C)(=O)=O)SC3=NC2=O)c(C)n1-c1ccc(C(C)C)cc1,-3.35

row,SMILES,% Inhibition @ 10 uM [%]
1,N#CC1=C(N)OC2=C(C(=O)CC(c3ccccc3)C2)C1c1ccccc1Cl (stereo not drawn),10.8
2,O=C(Nc1cc(Cl)ccc1Cl)c1cnccn1,1.13
3,COC(=O)c1cn2c(nc3ccccc32)c(C#N)c1O,-4.04
4,N#CCNC(=O)[C@@H]1CCCC[C@@H]1CS(=O)(=O)c1ccc(F)cc1,-3.25
5,CN1C2CCC1/C(=C\c1ccsc1)C(=O)/C2=C\c1ccsc1,-6.4
6,O=C(NC12CC3CC(CC(C3)C1)C2)C1CCN(c2cnccn2)CC1,-1.11
7,CCOc1ccc2c(c1)nc(NCCCO)n2CC,-7.5
8,CCCCCn1c(=O)c(C(=O)Nc2ncccc2O)c(O)c2ccccc21,4
9,Cc1ccc(-c2nc(CS(=O)(=O)CC(=O)NCCc3ccc(Cl)cc3)c(C)o2)cc1,-0.138
10,COc1ccc(NC(=O)Cn2cnc3cc(Cl)ccc3c2=O)c(OC)c1,-5.67
11,O=C(c1ccc2c(c1)ncn2-c1ccc(F)cc1F)N1CCC2(CC1)OCCO2,7.3
12,COc1ccc(Br)cc1CNC(=O)Cn1nc(C)c2sc3ccccc3c2c1=O,-2.96
13,O=C(COc1ccccc1)NCCCCc1ccccc1,-5.82
14,O=C(CCC1CCCCC1)N1CCN(Cc2ccc3c(c2)OCO3)CC1,0.565
15,CC1(C)CC(c2nc(-c3ccc([N+](=O)[O-])cc3)cs2)CCS1 (stereo not drawn),-3.93
16,COc1ccc(OC)c(C2CC(=O)C(C(C)C)C(c3cc(OC)ccc3OC)N2)c1 (stereo not drawn),-3.21
17,O=C(Nc1ccccc1O)c1cccc(S(=O)(=O)Nc2ccc(F)cc2)c1,5.79
18,CSc1nc(-c2ccco2)nn1C(=O)CCc1ccccc1,-2.75
19,Cc1cc(C)c(S(=O)(=O)N2CCC(Cc3ccccc3)CC2)c(C)c1,0.526
20,CCOc1ccccc1C(=O)Nc1ccccc1C(N)=O,9.29
21,COCCNc1nn2nnnc2c2ccccc12,0.802

# Reference: publication PMC6919601, “Identification of Plasmodium dipeptidyl aminopeptidase allosteric inhibitors by high throughput screening” (PLoS ONE, 2019)
